According to PubChem BioAssay AID485313 (National Center for Advancing Translational Sciences (NCATS), 2010):
Among all 320,000 compounds or so, about 7,600 (2.4%) were called active. This list was built around the results that the source calls inconclusive (neither active nor inactive); the mix of calls is not that of the screen. Calls come from the whole dose curve; as a rule, active = well fitted activation curve with a large enough effect; inconclusive = small, poorly fitted or top-dose-only effect; inactive = no such curve, though single readings can be large or run the other way. No potency is given beside an inconclusive call; the fits are too rough.

Experiment: qHTS Assay for NPC1 Promoter Activators; note: nearly all actives have a fitted effect of over 60% in size;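 for activation: reporter is driven by a mutant NPC1 promoter; % of control where 0% means no effect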
Details: Huh7 NPC1 promoter luciferase reporter, 24 h; series mostly up to 9.22 µM; activation: at the top concentration
Procedure, shortened: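 Huh7 cells stably carrying NPC1 promoter–luciferase, plated in Opti-MEM with 10% FBS for 2 h, were exposed to compound in DMSO for 24 h at 37 °C; luciferase reagent was added for 10 min and luminescence read.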
Potency is the fitted concentration of half-maximal effect; tags give direction and shape of the fitted curve.

Row | Structure (SMILES) | Potency | activation
1 | O=C(O)c1cccc(N/N=C(\N=Nc2ccccc2)c2ccccc2)c1 | inconclusive [activator, single point] | –
2 | CCCc1ccc2oc(C(=O)N(C)Cc3nccs3)c(C)c2c1 | inconclusive [activator, partial curve] | –
3 | COc1ccc2oc(=O)c(C(=O)Nc3ccccc3O)cc2c1 | active: 1000 nM | –
4 | Cc1cccc(-c2nc3c(s2)CCc2onc(-c4ccc(Br)cc4)c2-3)c1 | – | inactive: -1.95%
5 | Cc1ccc(S(=O)(=O)Nn2c(C)ccc2C)cc1 | – | inactive: 2.79%
6 | COC(=O)C(Cc1ccc(OC(=O)c2ccc(C)cc2)cc1)N1Cc2ccccc2C1=O (centres undefined) | inconclusive [activator, partial curve] | –
7 | O=C(/C=C\c1ccccc1)Nc1nccs1 | active: 1580 nM | –
8 | Cc1cccc(CC(=O)NCC2CCCCC2)c1 | inconclusive [activator, single point] | –
9 | O=C(c1cnn(-c2cccc(F)c2)c1)c1ccccc1O | inconclusive [activator, single point] | –
10 | Cc1ccc(Nc2nc(CSc3nnc(-c4ccncc4)n3C)cs2)cc1 | active: 3160 nM | –
11 | O=C(Nc1ccc2c(c1)C(=O)NC2=O)c1ccc2ncsc2c1 | inconclusive [activator, partial curve] | –
12 | O=[N+]([O-])c1ccc2nc(NS(=O)(=O)c3ccccc3[N+](=O)[O-])sc2c1 | inconclusive [activator, single point] | –
13 | CCN(CC)S(=O)(=O)c1cccc(C(=O)Nc2cc(C)nn2-c2ccccc2)c1 | – | inactive: -0.581%
14 | Cc1ccc(-c2nc(C#N)c(N3CCC(C)CC3)o2)cc1 | inconclusive [activator, full curve] | –
15 | Cc1ccc(-c2csc(NC(=O)C3=COCCO3)n2)cc1C | inconclusive [activator, partial curve] | –
16 | Cc1ccccc1NCc1nc2ccccc2n1C | active: 1410 nM | –
17 | CCN(CC)CCCNC(=O)c1ccc2c3n(nc2c1)-c1ccc(Cl)cc1CO3 | inconclusive [activator, partial curve] | –
18 | COc1ccc(-n2ncc3c(NCc4cccnc4)ncnc32)cc1 | active: 1260 nM | –
19 | CCCCSc1nnc(-c2c[nH]c3ccccc23)n1C | inconclusive [activator, partial curve] | –
20 | O=C(CSc1nc2ccccc2[nH]1)Nc1ccc(F)cc1 | – | inactive: -0.726%
21 | Cc1ccc(NC2CCCN(C(=O)c3ccccn3)C2)cc1C (centres undefined) | – | inactive: 0.382%
22 | Cc1ccc(N(CC(=O)Nc2ccccc2-c2ccccc2)S(=O)(=O)c2ccccc2)c(C)c1 | – | inactive: -3.18%
23 | Nc1ccc(OCc2ccccc2)cc1 | – | inactive: 28.3%
24 | O=C(NCCN1CCOCC1)c1noc2c1CCc1ccccc1-2 | inconclusive [activator, partial curve] | –
25 | O=C(NCCc1ccccc1)c1cnc2n(c1=O)CCS2 | inconclusive [activator, partial curve] | –
26 | O=C(Cc1cccs1)N/N=C/C=C/c1ccccc1[N+](=O)[O-] | inconclusive [activator, partial curve] | –
27 | CC(NC(=O)c1cc(COc2ccccc2)on1)c1nccs1 (centres undefined) | active: 1410 nM | –

Row | Structure (SMILES) | Potency | activation
28 | Cc1ccccc1Nc1nn2c(=O)c3ccccc3nc2s1 | active: 2510 nM | –
29 | Cc1csc(NC(=O)C2CCN(S(=O)(=O)c3ccccc3)CC2)n1 | – | inactive: -2.06%
30 | Cc1ccc(-c2cnn(-c3ccccc3)c2N)cc1 | active: 447 nM | –
31 | Cn1nnc2cc(C(=O)Nc3ccc(Cl)cc3)ccc21 | inconclusive [activator, single point] | –
32 | COc1ccc(-c2csc(Nc3ccc(O)cc3)n2)cc1 | inconclusive [activator, single point] | –
33 | O=C(/C=C/c1ccccc1Cl)Nc1ccc(Cl)cn1 | inconclusive [activator, partial curve] | –
34 | COc1ccccc1-n1cnc2sc(-c3ccccc3)cc2c1=O | inconclusive [activator, partial curve] | –
35 | O=C(Nc1ccccc1F)Nc1ccc([N+](=O)[O-])cc1Cl | inconclusive [activator, partial curve] | –
36 | CCOC(=O)C(C)n1cnc2c(cnn2-c2ccc(Cl)cc2)c1=O (centres undefined) | inconclusive [activator, partial curve] | –
37 | O=C(NCCc1ccccc1)C(=O)c1c[nH]c2ccccc12 | inconclusive [activator, single point] | –
38 | O=C1NCCN/C1=C\C(=O)c1ccc(F)cc1 | – | inactive: 28.8%
39 | Cn1ccnc1SCC(=O)c1cccc(C(F)(F)F)c1 | active: 2820 nM | –
40 | c1ccc(COc2ccc(Nc3ncnc4nc[nH]c34)cc2)cc1 | inconclusive [activator, partial curve] | –
41 | CCC(CC)C(=O)Nc1nc(-c2ccc3c(c2)CCN3C(=O)C2CC2)c(C)s1 | – | inactive: -1.64%
42 | CC(=O)N1CC(C)Oc2ccc(S(=O)(=O)NC(CC(=O)O)c3ccc(C)cc3C)cc21 (centres undefined) | – | inactive: 0.782%
43 | NC(=O)c1cccc(N)c1 | – | inactive: 1.95% [at 46.1 µM]
44 | COc1ccc(N2C(=O)c3ccccc3NC2c2ccc(OC)c(Cn3nnc4ccccc43)c2)cc1 (centres undefined) | inconclusive [activator, single point] | –
45 | Nn1c(-c2cccc(Br)c2)n[nH]c1=S | inconclusive [activator, single point] | –
46 | COc1ccc(-n2c(C)cc(C(=O)NC3CCCCC3)c2C)cc1 | inconclusive [activator, partial curve] | –
47 | O=C(NCCc1ccc(F)cc1)c1ccc2nccnc2c1 | active: 1780 nM | –
48 | CC(Cc1ccccc1)C(=O)Nc1ccc(Br)cc1 (centres undefined) | inconclusive [activator, single point] | –
49 | COc1cccc(-c2cc(C(=O)N3CCN(c4ccccc4OC)CC3)no2)c1 | – | inactive: -2.96%
50 | Cc1c(C)c2ccc(OCC(=O)Nc3nccs3)cc2oc1=O | active: 282 nM | –
51 | O=C(c1ccc(Cl)cc1)c1coc2ccc(O)cc12 | inconclusive [activator, single point] | –
52 | CN(c1ccc(C(=O)NCCc2ccccc2)cc1)S(C)(=O)=O | active: 1410 nM | –
53 | O=C(Nc1sc2c(c1C(=O)O)CCCCC2)c1ccccc1 | active: 2820 nM | –
54 | COc1ccc(/[N+]([O-])=C/c2ccoc2)cc1 | inconclusive [activator, single point] | –

Row | Structure (SMILES) | Potency | activation
55 | O=C(NCc1ccccc1F)c1ccc2c(c1)OCCO2 | inconclusive [activator, partial curve] | –
56 | Cc1ccc(S(=O)(=O)Nc2cccc(-c3ccc(N4CCCCCC4)nn3)c2)cc1C | inconclusive [activator, single point] | –
57 | O=C(O)c1ccc(N/N=C/c2cccc3nccnc23)cc1 | inconclusive [activator, partial curve] | –
58 | CCCCc1cc(=O)oc2cc(OCC(=O)Nc3ccccn3)ccc12 | inconclusive [activator, partial curve] | –
59 | O=C1/C(=C\Nc2ccccc2)CCN1c1ncccn1 | inconclusive [activator, single point] | –
60 | Nc1ccc(-c2nc3ccccc3o2)cc1 | inconclusive [activator, full curve] | –
61 | Cc1cc2nn(-c3ccccc3)nc2cc1NC(=O)c1cccs1 | inconclusive [activator, partial curve] | –
62 | CC1SCC(NC(=O)c2ccc(Cl)cc2)CS1 (centres undefined) | inconclusive [activator, partial curve] | –
63 | O=C(Nc1ccc(Cn2cccn2)cc1)c1ccc(COc2ccccc2Br)cc1 | – | inactive: 9.06%
64 | CCOC(=O)C(C(=O)OCC)C1N=C(N)N=C2Oc3ccccc3N21 (centres undefined) | inconclusive [activator, partial curve] | –
65 | CC(C)c1ccc(C(O)Cc2nc3ccccc3n2C)cc1 (centres undefined) | inconclusive [activator, single point] | –
66 | O=C(C1CCN(c2ccc(N3CCOCC3)nn2)CC1)N1CCN(c2ccc(F)cc2)CC1 | – | inactive: -1.09%
67 | O=C(Nc1ccc(Br)cc1)N1CCc2ccccc2C1 | active: 2820 nM | –
68 | CN=c1scc(C)n1/N=C/c1ccc(O)c(O)c1O | – | inactive: 1.79%
69 | Cc1csc(SCCN2C(=O)c3ccccc3C2=O)n1 | inconclusive [activator, single point] | –
70 | CCOc1ccc2c(c1)c(N=Nc1cccc(C(=O)O)c1)c(O)n2C | inconclusive [activator, partial curve] | –
71 | O=C1CC(c2ccccc2)CC(O)=C1C=Nc1ccc(Cl)cc1 (centres undefined) | – | inactive: -2.81%
72 | O=C(Cc1ccc(Br)cc1)N1CCc2ccccc2C1 | inconclusive [activator, partial curve] | –
73 | Cc1ccc(-c2nc(-c3ccncc3)no2)cc1C | active: 708 nM | –
74 | S=C(Nc1ccc2c(c1)OCO2)N1CCN(Cc2ccco2)CC1 | inconclusive [activator, single point] | –
75 | CCOC(=O)c1ccc(-c2ccc(/C=N/NC(=O)Cc3nnc(N)s3)o2)cc1 | active: 2510 nM | –
76 | COc1ccccc1/C=C/C=N/NC(=O)c1cnccn1 | – | inactive: 13.5%
77 | O=C(NCCc1ccccc1)c1nc(-c2cccs2)no1 | inconclusive [activator, single point] | –
78 | Cc1ccc2nc(NC(=O)c3ccccn3)sc2c1 | inconclusive [activator, full curve] | –
79 | Cc1c2cnn(CC(=O)NC3CCCC3)c(=O)c2c(C)n1Cc1ccccc1 | inconclusive [activator, partial curve] | –
